In paper PMC7819943, “Rice protein-binding microarrays: a tool to detect cis-acting elements near promoter regions in rice”:
The other results are listed elsewhere or left out.

The sequences below were run against T1, OsWOX13 (Oryza sativa, UniProt Q5QMM3 1-267) (assay: protein-binding microarray (RPBM); PBS, 2% BSA, 51.3 ng/ul salmon testes DNA, 50 uM zinc acetate, 200 nM TF, 25 C, 1 h; high values mean tight binding). Settings: protein: recombinant; tags: N-terminal polyhistidine and DsRed monomer fusion (pET32a); label: CyDye5-dUTP incorporated in the synthesized complementary strand; 3' TTTTT single-stranded linker to array surface; dsDNA, one strand shown.
T1 sequence: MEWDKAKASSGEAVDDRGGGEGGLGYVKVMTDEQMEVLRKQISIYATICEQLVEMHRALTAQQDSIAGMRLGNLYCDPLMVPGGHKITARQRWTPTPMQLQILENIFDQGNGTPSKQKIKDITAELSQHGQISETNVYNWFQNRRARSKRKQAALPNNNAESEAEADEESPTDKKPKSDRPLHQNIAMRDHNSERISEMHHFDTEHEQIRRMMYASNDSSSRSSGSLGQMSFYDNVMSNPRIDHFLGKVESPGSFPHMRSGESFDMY
Method in brief: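 The binding signal is fluorescence intensity per feature, in arbitrary units, read on an Axon 4000B scanner. Polyhistidine- and DsRed-tagged transcription factors (N-terminal fusions) from E. coli BL21-CodonPlus were purified on Ni–NTA and applied at 200 nM for 1 h at 25 °C to a double-stranded, BSA-blocked custom Agilent array in buffer with 50 µM zinc acetate.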

Sequence | binding signal
TTAAATGATTATCAAAACAAGACAATGATAATAAAGTAACCGGAGTCACCTAGTGCAG | 7070 fluorescence intensity (a.u.)
CTCCCAGTCATTTTGGAATTAGTTCTGAAGATTGTGTTTGCGGAGTCACCTAGTGCAG | 3290 fluorescence intensity (a.u.)
CACAGATCGATGGCTAATTAAACCATGCTCACACTGGCATCGGAGTCACCTAGTGCAG | 4530 fluorescence intensity (a.u.)
AAGAGCATAATAGATTATATAACCCAAGGTACAGACTGCGCGGAGTCACCTAGTGCAG | 3410 fluorescence intensity (a.u.)
AAGTTAACATGATTAATTTGCTACTCCCTCCGTTTCACAACGGAGTCACCTAGTGCAG | 18800 fluorescence intensity (a.u.)
TCTCTTCCCAATCTACATTGCTAATTCCTCTCAATTGTATCGGAGTCACCTAGTGCAG | 3220 fluorescence intensity (a.u.)
TCCTAAATGGATTGGCCATTTTCCCCTTCGACTATGTGAGCGGAGTCACCTAGTGCAG | 39900 fluorescence intensity (a.u.)
GGACAAACATAATTAGGAGAGACCGCCACTTTATCCATCACGGAGTCACCTAGTGCAG | 11100 fluorescence intensity (a.u.)
GCACTAATCAAGATACTAGCTCATAGTACAATGGTCTGGTCGGAGTCACCTAGTGCAG | 8510 fluorescence intensity (a.u.)
TTTACATAAATTACCCCTGACACCTAAGGGTGAGTTTGAGCGGAGTCACCTAGTGCAG | 6540 fluorescence intensity (a.u.)
ACCAGATTAGCTATAACTTTTCAATTAACTATTCCCTAATCGGAGTCACCTAGTGCAG | 25700 fluorescence intensity (a.u.)
CCATTCCTGTGATAGCCCTTAATGATCAGTTAGCATGCATCGGAGTCACCTAGTGCAG | 4450 fluorescence intensity (a.u.)
TCATCTGCACTAATTAAATAATTGACAACAAAAGAATGAACGGAGTCACCTAGTGCAG | 12400 fluorescence intensity (a.u.)
TGCTGGTTTGTTGATTGCTTTTATATCAAACTGGGAGCTACGGAGTCACCTAGTGCAG | 17800 fluorescence intensity (a.u.)
ACACATGATTAATCTAATTTTAATTATTACAAACTTAAATCGGAGTCACCTAGTGCAG | 28500 fluorescence intensity (a.u.)
AGTTGTGATTATTGTTTAACCTATTTCCCTGAAGAAATTCCGGAGTCACCTAGTGCAG | 14800 fluorescence intensity (a.u.)
AGTATCACTTTGATTAATTACTAACCCTACTAGTATCTCTCGGAGTCACCTAGTGCAG | 11200 fluorescence intensity (a.u.)
TCCTGACAGGATGGGGCGAGGCGTGCGTCAGACCGCCTGTCGGAGTCACCTAGTGCAG | 12000 fluorescence intensity (a.u.)
TACTATCAACTCTGTTAAAATTGAAGAATTTTGACTAAAACGGAGTCACCTAGTGCAG | 3310 fluorescence intensity (a.u.)
TTAATCATAATTTGTGCTAATTAGTAATCTTCATTTGTTTCGGAGTCACCTAGTGCAG | 46700 fluorescence intensity (a.u.)
CATTTTAATTGACGCTTTGGACAATGACACGCTCTACAAGCGGAGTCACCTAGTGCAG | 32200 fluorescence intensity (a.u.)

Sequence | binding signal
GTCATGATCCTCGTAATTACACATTGCCATTCTTAGCAAACGGAGTCACCTAGTGCAG | 6790 fluorescence intensity (a.u.)
CCTAATTATTCTTCTTAAGTACATTCTTTCCTTGTCATTACGGAGTCACCTAGTGCAG | 29200 fluorescence intensity (a.u.)
ATGATTTGCTTCATGTTGTCTACTAATGTTATTACACGTACGGAGTCACCTAGTGCAG | 14600 fluorescence intensity (a.u.)
TTTAATCATAATTCTCTTATACATTGCGTATTAGAAAATTCGGAGTCACCTAGTGCAG | 4370 fluorescence intensity (a.u.)
TCTTAATTTCTCCAGACCAGCTACAAGCCTTCAACCACATCGGAGTCACCTAGTGCAG | 11600 fluorescence intensity (a.u.)
GTTTGATAGCATCTTTAACCGTACATTCATGAGATGCAGGCGGAGTCACCTAGTGCAG | 7840 fluorescence intensity (a.u.)
TCGGAAATGATTTCTCCTCGTCCCGATTTGACCTCTGGTTCGGAGTCACCTAGTGCAG | 11300 fluorescence intensity (a.u.)
TTTTCCATCAATCATCAAGATGAATATAATGTATATGACTCGGAGTCACCTAGTGCAG | 25300 fluorescence intensity (a.u.)
ACCCTCATCTCTTCTCCTGATTGAATTGTCTTCCTCAACCCGGAGTCACCTAGTGCAG | 30400 fluorescence intensity (a.u.)
TGATCAATTGATACTGCAATCAAGGAAGAACACCATAGCTCGGAGTCACCTAGTGCAG | 3550 fluorescence intensity (a.u.)
CTTTTCAAACTGTTAAATGATAAATGATGTGTTTCGTACACGGAGTCACCTAGTGCAG | 3580 fluorescence intensity (a.u.)
CGTGACAGCCTCACACGCGGCGCCTCTCACCCGTCGCTACCGGAGTCACCTAGTGCAG | 3210 fluorescence intensity (a.u.)
ACGTGGGGATTGATCTGGTATGTGCAGAGCTTGGAGGGGACGGAGTCACCTAGTGCAG | 8560 fluorescence intensity (a.u.)
TAAACATGATTTATCGATATGATAGGCTACTTAATTTCATCGGAGTCACCTAGTGCAG | 14700 fluorescence intensity (a.u.)
CACCATGCCAGATTGTTAATTACTCACGCACGAATTCCTACGGAGTCACCTAGTGCAG | 6620 fluorescence intensity (a.u.)
ACTTGAAAATTTAAATTTTAGATGATAAGTACTCCCTCCGCGGAGTCACCTAGTGCAG | 17600 fluorescence intensity (a.u.)
CTAATTAATCCGTCATTAGCAAATATTTACTGTAGCACCACGGAGTCACCTAGTGCAG | 17700 fluorescence intensity (a.u.)
GGGTTCAAATCTTTGATTTGACATAGATGTTCGAAGCGTTCGGAGTCACCTAGTGCAG | 6850 fluorescence intensity (a.u.)
CACAATCACAATTATAACCATTACAGATAATTACATCACTCGGAGTCACCTAGTGCAG | 18300 fluorescence intensity (a.u.)
CTTTCTGTCAATTACTCAACCTTTGTTGCATAGCTTGATTCGGAGTCACCTAGTGCAG | 15000 fluorescence intensity (a.u.)
CTCCTTAATTTACTTATTTGTCTTTAATTGGTTCTCGCACCGGAGTCACCTAGTGCAG | 33700 fluorescence intensity (a.u.)

Sequence | binding signal
TGAGTGTGATTTGCATGCACGGGAGGCTCAAACGAAGCCACGGAGTCACCTAGTGCAG | 5620 fluorescence intensity (a.u.)
CAAATTTATAATAATTAAAATTTAATTAATTATGTGTTAACGGAGTCACCTAGTGCAG | 57700 fluorescence intensity (a.u.)
CCTTAAACTATAATCTGTGTTAAATAACCTAGAAAGCAACCGGAGTCACCTAGTGCAG | 3550 fluorescence intensity (a.u.)
TGGGATACTAATTAGAAGTATTAAATGTAGACTAATGATACGGAGTCACCTAGTGCAG | 6830 fluorescence intensity (a.u.)
CTAAATTGGCGGGAGTGCCCTTGGGCGGGCTGCCGCATGCCGGAGTCACCTAGTGCAG | 25200 fluorescence intensity (a.u.)
TGTATAATTAAGGGACCCCGTATATCTGGTTTTGTGGTTCCGGAGTCACCTAGTGCAG | 7010 fluorescence intensity (a.u.)
CAAAACAGACATAATCTTGTTGGACAGACGTAGCCATGAACGGAGTCACCTAGTGCAG | 12500 fluorescence intensity (a.u.)
TTTCGTGATAATTTTGTGTGCAATCACAACAATTTGAAATCGGAGTCACCTAGTGCAG | 6180 fluorescence intensity (a.u.)
CGTGAACTAATTTATAGTCCAAAATAGATCGTAAAACCTACGGAGTCACCTAGTGCAG | 5670 fluorescence intensity (a.u.)
GTCCTAATGTAATGATTTGTTTATTATCAAGTGAAAGAAACGGAGTCACCTAGTGCAG | 20800 fluorescence intensity (a.u.)
TAATTAGGTTAATTAATTACTCATGGTTTATTGCTTGGAGCGGAGTCACCTAGTGCAG | 18500 fluorescence intensity (a.u.)
CTAACTAAATTGTCTGTGGGCTGCTGGGCCTCTTCTTCGTCGGAGTCACCTAGTGCAG | 19200 fluorescence intensity (a.u.)
TAGTAATCATATCCATCAAACGTTATAGCATGAGCGTCATCGGAGTCACCTAGTGCAG | 6130 fluorescence intensity (a.u.)
GCATATCAATTTGTTTAGCCAATGGCAAAATTTAGAAGTCCGGAGTCACCTAGTGCAG | 5810 fluorescence intensity (a.u.)
ATAAATTTATGGTAAATTTGAAGTTGACAAATAATAACGCCGGAGTCACCTAGTGCAG | 42600 fluorescence intensity (a.u.)
TTTAAACTGGATGTTATTGCAAGGTTGCCACATGCAAAACCGGAGTCACCTAGTGCAG | 8290 fluorescence intensity (a.u.)
AACCCATTGTCCAATCAAGGTTGAACTCCTCCCATCTGGACGGAGTCACCTAGTGCAG | 6890 fluorescence intensity (a.u.)
AAGTGATTTGTTTAGTACTTCCTCCGTTTCACAATGTAAGCGGAGTCACCTAGTGCAG | 20300 fluorescence intensity (a.u.)
AACGATGGATTGACGAAATAACGAGAGAAGCCAAGCCAAGCGGAGTCACCTAGTGCAG | 16700 fluorescence intensity (a.u.)
TTGGGGTTGATTTTGCTGATGTTTAGCCATTTCTTTGGTACGGAGTCACCTAGTGCAG | 7000 fluorescence intensity (a.u.)
GTGTGATTTGTTCTTCATTCCCTCCAATCATTTGCAGGCTCGGAGTCACCTAGTGCAG | 40000 fluorescence intensity (a.u.)

Sequence | binding signal
GATGGATTGTAAATAACATTGATGGAGTAACTAATGAGAACGGAGTCACCTAGTGCAG | 5270 fluorescence intensity (a.u.)
GTGAGATGATGATTACTCATCAGATCCCAAACCTACGCCCCGGAGTCACCTAGTGCAG | 16900 fluorescence intensity (a.u.)
TTAAATTGGAACAGAGGGAGCAGTATCTACGCCCATGCCACGGAGTCACCTAGTGCAG | 29500 fluorescence intensity (a.u.)
CTTCTAATCTATGTTATGTGATAATGGTCATGCAGGTGTTCGGAGTCACCTAGTGCAG | 3780 fluorescence intensity (a.u.)
ACAGCTGGTGATGAAATTGATTTTCTCCTGTTAACAAAACCGGAGTCACCTAGTGCAG | 8100 fluorescence intensity (a.u.)
AACAATATCGTTAATTTGCTAAAATTATGGGAATTGTTAACGGAGTCACCTAGTGCAG | 10600 fluorescence intensity (a.u.)
CAAACAAGGAATAAATTAATCAATCATGCTTCTGTTAACCCGGAGTCACCTAGTGCAG | 18400 fluorescence intensity (a.u.)
CAATCTGCCAAATGGCAATTTGGCATCAATCATTATCACACGGAGTCACCTAGTGCAG | 3840 fluorescence intensity (a.u.)
GAATCCAGTAATATAATTAGATTGAAATCTGGATAAACAGCGGAGTCACCTAGTGCAG | 31200 fluorescence intensity (a.u.)
CAAAACGAATTAATTAATTTGGTTTTAATTAATTTTGTTCCGGAGTCACCTAGTGCAG | 46700 fluorescence intensity (a.u.)
ACAATGAAGGAGTTTAATTGGACTATATTTCCACATCGTTCGGAGTCACCTAGTGCAG | 4180 fluorescence intensity (a.u.)
TAACTAAAATTATCAAATCATCGGATCGGGGTTTGGCGTTCGGAGTCACCTAGTGCAG | 12500 fluorescence intensity (a.u.)
TTTTCCATCACATTAACCTGTCATACACACAAAACTTTTCCGGAGTCACCTAGTGCAG | 4820 fluorescence intensity (a.u.)
GTTAAATTTGGAGCAGATTGACTTTGACCAAAACTAAAACCGGAGTCACCTAGTGCAG | 36400 fluorescence intensity (a.u.)
GCATTCACTGGTTTAGATTGGAATTGGATGGCATCCGGAGCGGAGTCACCTAGTGCAG | 22800 fluorescence intensity (a.u.)
TTACAGATTGGCCCCTGTATTTCTCTCTCTCGTCTCTCCTCGGAGTCACCTAGTGCAG | 24800 fluorescence intensity (a.u.)
TCCCAACATGATGTACTTTGATTGGGCTCAATTCTAGATGCGGAGTCACCTAGTGCAG | 16700 fluorescence intensity (a.u.)
CCAAGCAACAATAATGAAATGGGATTGAAACCACCCATAACGGAGTCACCTAGTGCAG | 3450 fluorescence intensity (a.u.)
CTGGGAGGCAATTAATTTGAGTTGAGATCGACTTGAGAGCCGGAGTCACCTAGTGCAG | 6130 fluorescence intensity (a.u.)
ATTAATTAACCACACTCACTCAATCCTGGAACTCGATTATCGGAGTCACCTAGTGCAG | 12600 fluorescence intensity (a.u.)
ATTTAAATTTTCAACCTTAAATTTAGAGTTGACTTTGGTTCGGAGTCACCTAGTGCAG | 13800 fluorescence intensity (a.u.)
